Measured values taken from article PMC10009787 (ACS Medicinal Chemistry Letters, 2023).
Where two headings read alike, the source gives them in different places.

Target: SRC (Homo sapiens, UniProt P12931)
Assay: SelectScreen kinase profiling / Z′-Lyte kinase assay

Chain of UniProt P12931 (P12931 whole entry): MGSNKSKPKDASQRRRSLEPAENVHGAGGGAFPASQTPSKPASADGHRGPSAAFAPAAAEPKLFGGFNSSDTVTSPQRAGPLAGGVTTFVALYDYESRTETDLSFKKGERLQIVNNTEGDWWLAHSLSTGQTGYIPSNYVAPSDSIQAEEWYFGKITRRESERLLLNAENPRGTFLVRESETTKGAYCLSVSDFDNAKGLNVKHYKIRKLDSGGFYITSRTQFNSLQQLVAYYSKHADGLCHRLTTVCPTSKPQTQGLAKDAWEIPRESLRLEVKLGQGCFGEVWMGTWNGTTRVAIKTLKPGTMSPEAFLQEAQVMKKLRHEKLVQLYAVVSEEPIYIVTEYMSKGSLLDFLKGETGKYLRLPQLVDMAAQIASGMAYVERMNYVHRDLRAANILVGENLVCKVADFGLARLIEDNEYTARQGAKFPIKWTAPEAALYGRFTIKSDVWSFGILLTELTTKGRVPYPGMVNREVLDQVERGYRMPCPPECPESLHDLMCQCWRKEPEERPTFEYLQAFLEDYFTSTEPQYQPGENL

inhibition at 3.33 µM (read-out: % Inhibition Point 1): 100%
inhibition at 3.33 µM (read-out: % Inhibition Point 2): 98%
inhibition at 10 µM (read-out: % Inhibition Point 2): 101%
Structure (SMILES): C=CC(=O)N1CCC[C@@H](n2nc(-c3ccc(Oc4ccccc4)cc3C)c3c(N)ncnc32)C1 [Compound 2, (R)-1-(3-(4-amino-3-(2-methyl-4-phenoxyphenyl)-1H-pyrazolo[3,4-d]pyrimidin-1-yl)piperidin-1-yl)prop-2-en-1-one]
